Consider 37 substances from the supplement of paper PMC11741623.

The list shows a part of the results. Interaction screen of human proteins with wild-type SARS-CoV-2 proteins by split-DHFR complementation in yeast, 1 µg/mL methotrexate. Value = fitness of the pair (three or more lineages) minus that of the viral protein without a human partner, on a scale set by negative (0) and fused positive (1) controls, mean of up to three cultures; higher = more likely to interact. Active = false discovery rate below 0.05 (one-sided t-test) in at least one culture. Nearly all pairs are not hits, and differences among them are mostly noise (correlation between cultures about 0.3); most hits were seen in one culture only. Human sequences are the Swiss-Prot entries looked up by gene name; the clone may be another isoform. NSP2 values were corrected by the authors for a growth advantage. Listed are human proteins with a hit and a random twelfth of the others.

For the test, the system named is SARS-CoV-2 NSP12. The test can be described thus: yeast fitness gain over the viral ORF with no human partner (scaled fitness); higher = more likely to interact. Here is the method: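 Split mouse DHFR complementation in pooled diploid yeast: human ORFeome clones carry one fragment and viral ORFs the other; barcoded lineages compete in 1 µg/mL methotrexate and fitness is read by barcode sequencing in up to three cultures.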
Consider MCM9, Q9NXL9, for which the yeast fitness gain was inactive: -0.505.

Take FAM19A3, Q7Z5A8: the yeast fitness gain was inactive: -0.0326.

For the substance RALYL, Q86SE5, the yeast fitness gain is inactive: 0.0453.

As to HOXC8, P31273, the yeast fitness gain was inactive: -0.018.

Turning to BHLHA15, Q7RTS1, the yeast fitness gain is inactive: -0.186.

With HEATR1, Q9H583, the yeast fitness gain was inactive: -0.0383.

Regarding KLF6, Q99612, the yeast fitness gain was inactive: -0.13.

OR4D1, Q15615: the yeast fitness gain is inactive: -0.3.

As to DESI2, Q9BSY9, the yeast fitness gain is inactive: -0.0481.

Consider TIMM50, Q3ZCQ8, for which the yeast fitness gain is inactive: 0.0688.

CABP5, Q9NP86: the yeast fitness gain is inactive: 0.0534.

For the substance BNIP3L, O60238, the yeast fitness gain was inactive: -0.349.

In the case of IDH3B, O43837, the yeast fitness gain is inactive: 0.0932.

PTBP1, P26599: the yeast fitness gain is inactive: 0.222.

On to EGR3, Q06889, for which the yeast fitness gain was inactive: 0.0415.

For the substance FAM136A, Q96C01, the yeast fitness gain was inactive: -0.0492.

In the case of RGS3, P49796, the yeast fitness gain was inactive: 0.0887.

With PTCD1, O75127, the yeast fitness gain was inactive: -0.177.

As for PRR14L, Q5THK1, the yeast fitness gain was inactive: 0.00789.

On to HYDIN, Q4G0P3, for which the yeast fitness gain is inactive: -0.0959.

Take NDRG4, Q9ULP0: the yeast fitness gain was inactive: 0.0252.

Consider MT2A, P02795, for which the yeast fitness gain is inactive: -0.118.

In the case of ZNF517, Q6ZMY9, the yeast fitness gain was inactive: 0.0402.

On to ZNF785, A8K8V0, for which the yeast fitness gain was inactive: -0.0584.

In the case of HAUS7, Q99871, the yeast fitness gain was inactive: 0.03.

As for POLD2, P49005, the yeast fitness gain is inactive: -0.00686.

As to HSPB7, Q9UBY9, the yeast fitness gain is inactive: -0.0169.

MAFF, Q9ULX9: the yeast fitness gain was inactive: -0.0719.

For ZFYVE26, Q68DK2, the yeast fitness gain was inactive: 0.0215.

As for TLX3, O43711, the yeast fitness gain is inactive: 0.109.

As for OXCT1, P55809, the yeast fitness gain is inactive: -0.0341.

As to TET2, Q6N021, the yeast fitness gain was inactive: -0.259.

With SRGAP1, Q7Z6B7, the yeast fitness gain is inactive: -0.264.

For ZNF673, Q5JUW0, the yeast fitness gain is inactive: -0.0459.

For the substance TLK2, Q86UE8, the yeast fitness gain was inactive: -0.0861.

In the case of MAGEA10, P43363, the yeast fitness gain is inactive: -0.0635.

For IHH, Q14623, the yeast fitness gain is inactive: 0.0116.
